{
  "source": "PubChem BioAssay AID651812",
  "about": "(National Center for Advancing Translational Sciences (NCATS), 2012)",
  "note": "In all, about 2,100 compounds went through this assay and about 650 (31%) were called active. This list was built around the results that the source calls inconclusive (neither active nor inactive); the mix of calls is not that of the screen. The call rests on the fitted dose curve; in most records, active means well fitted inhibition curve with a large enough effect; inconclusive means small, poorly fitted or top-dose-only effect; inactive means flat fitted curve, though single readings scatter. Potencies of inconclusive entries are left out as doubtful fits. Potency means the concentration at half of the fitted maximal effect; tags describe the fitted curve by direction and shape.",
  "data": [
    {"test": "qHTS for inhibitors of Vif-A3G interactions: Cherry picks; further: nearly all actives have a fitted effect of over 80% in size; on activity, negative = fluorescence increase: % of control where 0% means no effect", "details": "HeLa A3G-eYFP + Vif (tagged APOBEC3G with the HIV-1 protein that degrades it), 24 h; Potency: eYFP fluorescence increase unless noted; activity, negative = fluorescence increase: at 36.9 µM (top of the series) unless noted", "summary_of_the_method": "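HeLa cells stably expressing A3G-eYFP and Vif, cultured overnight then exposed to compounds at several concentrations for 24 hours at 37 C, 5% CO2; cellular yellow fluorescence (488 nm ex, 500-530 nm em) imaged on Acumen, MG132 positive control.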", "values": [
      {"smiles": "O=C(CSc1n[nH]c(-c2ccccn2)n1)Nc1ccc(Cl)cc1", "activity, negative = fluorescence increase": "inactive: 3.07% [at 46.1 µM]"},
      {"smiles": "CCN(CC)c1ccc2cc(-c3nnc(-c4ccccc4)o3)c(=O)oc2c1", "Potency": "active: 0.627 µM"},
      {"smiles": "O=C(NCc1ccccc1)C1Cc2c(-c3cccc(F)c3)ccnc2O1", "note": "(stereo unspecified)", "activity, negative = fluorescence increase": "inactive: -18%"},
      {"smiles": "Cc1ccc(C2=NN(S(=O)(=O)c3ccccc3)C(c3ccccc3O)C2)cc1", "note": "(stereo unspecified)", "Potency": "inconclusive [inhibitor, single point]"},
      {"smiles": "CCN(CC)c1ccc2cc(C(N)=O)c(=N)oc2c1", "Potency": "active: 23.1 µM"},
      {"smiles": "Cc1c(C(=O)Nc2cccnc2)oc2ccc(Br)cc12", "activity, negative = fluorescence increase": "inactive: -3.28%"},
      {"smiles": "O=C(NCc1ccccc1)C1Cc2c(-c3ccc(Cl)cc3)ccnc2O1", "note": "(stereo unspecified)", "activity, negative = fluorescence increase": "inactive: -5.56%"},
      {"smiles": "COc1cc(/C=C/c2ccnc3ccccc23)ccc1N(C)C", "Potency": "active: 20.6 µM"},
      {"smiles": "COc1cc(OC)c(OC)cc1/C=C1\\CC(C)C/C(=C\\c2cc(OC)c(OC)cc2OC)C1=O", "note": "(stereo unspecified)", "Potency": "inconclusive [inhibitor, single point]"},
      {"smiles": "O=C(N/N=C/c1c(O)n(-c2ccc(Cl)cn2)c(=O)c2ccccc12)c1ccncc1", "Potency": "inconclusive [inhibitor, single point]"},
      {"smiles": "CCN(CC)c1ccc2cc(-c3nc(-c4ccccc4)no3)c(=O)oc2c1", "Potency": "active: 4.61 µM"},
      {"smiles": "CCOC1=C/C(=C/c2c(N)n3nc(-c4ccccc4)sc3nc2=O)C=CC1=O", "Potency": "inconclusive [inhibitor, single point]"},
      {"smiles": "O=C1/C(=C\\c2ccc(O)c(O)c2)SC(=S)N1Cc1ccccc1", "Potency": "inconclusive [inhibitor, partial curve]"},
      {"smiles": "N#Cc1cccn1-c1nccc(-c2cccs2)n1", "Potency": "inconclusive [inhibitor, single point]"},
      {"smiles": "COc1cc(/C=C2\\SC(=S)N(NC(=O)c3ccccc3O)C2=O)ccc1O", "Potency": "active: 23.1 µM"},
      {"smiles": "Cc1ccc(O)c(NC(=O)c2cc(-c3ccccc3O)no2)c1", "Potency": "active: 20.6 µM"},
      {"smiles": "Cc1ccc(S(=O)(=O)C(C#N)c2nc3ccccc3nc2N2CCCC2)cc1", "note": "(stereo unspecified)", "Potency": "inconclusive [inhibitor, single point]"},
      {"smiles": "Cc1cccc(CN2C(=O)N/C(=C/c3ccc(C)s3)C2=O)c1", "Potency": "inconclusive [inhibitor, single point]"},
      {"smiles": "CC1=CC(C)(C)Nc2ccc(OC(=O)CN3C(=O)CCC3=O)cc21", "Potency": "inconclusive [inhibitor, single point]"},
      {"smiles": "N#CC1=C(N)Oc2c(sc3ccccc23)C1c1ccco1", "note": "(stereo unspecified)", "Potency": "inconclusive [inhibitor, single point]"},
      {"smiles": "O=C(NCc1cccs1)C1CCN(c2ccc(S(=O)(=O)N3CCOCC3)cc2Cl)CC1", "activity, negative = fluorescence increase": "inactive: -2.2%"}
    ]}
  ]
}
